# In the supplement of paper PMC3334620:
# The full ranking holds about 33,000 sequences; the median of “E-score (-0.5 to 0.5)” is about -0.021, and the highest 2% start at about 0.32. The list shows a part of the results.
# Target: T1, Zap1 (UniProt P47043)
# T1 sequence: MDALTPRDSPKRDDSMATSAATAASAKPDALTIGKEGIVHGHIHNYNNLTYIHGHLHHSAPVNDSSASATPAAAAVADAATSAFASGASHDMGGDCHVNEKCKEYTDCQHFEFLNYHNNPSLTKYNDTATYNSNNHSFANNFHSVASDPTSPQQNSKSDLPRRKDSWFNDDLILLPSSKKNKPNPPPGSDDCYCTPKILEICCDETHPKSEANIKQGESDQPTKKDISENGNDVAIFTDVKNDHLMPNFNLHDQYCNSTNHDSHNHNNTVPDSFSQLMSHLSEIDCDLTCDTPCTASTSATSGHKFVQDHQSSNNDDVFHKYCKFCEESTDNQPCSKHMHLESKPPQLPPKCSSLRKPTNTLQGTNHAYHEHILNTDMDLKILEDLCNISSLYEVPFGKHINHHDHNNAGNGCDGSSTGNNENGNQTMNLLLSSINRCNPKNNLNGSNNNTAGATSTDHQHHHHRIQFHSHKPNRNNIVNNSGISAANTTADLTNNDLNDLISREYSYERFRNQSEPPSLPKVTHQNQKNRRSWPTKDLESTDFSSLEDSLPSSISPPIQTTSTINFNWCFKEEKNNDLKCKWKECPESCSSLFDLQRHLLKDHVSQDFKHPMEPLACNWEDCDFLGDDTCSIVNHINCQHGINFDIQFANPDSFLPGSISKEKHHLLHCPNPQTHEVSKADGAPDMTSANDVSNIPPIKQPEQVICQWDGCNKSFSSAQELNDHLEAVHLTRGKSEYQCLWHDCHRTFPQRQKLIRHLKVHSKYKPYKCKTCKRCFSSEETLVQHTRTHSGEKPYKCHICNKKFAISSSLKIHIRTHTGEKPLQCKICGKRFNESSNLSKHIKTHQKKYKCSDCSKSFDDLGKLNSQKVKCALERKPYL
# Experiment: PBM E-score (8-mer binding enrichment) (E-score (-0.5 to 0.5)); higher = stronger / more preferred TF binding; most listed sequences are background and not binding sites
# Settings: protein concentration: 200 nM; construct: GST-full length
# Summary of the method: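 Detection of bound protein used fluorescent anti-GST, with scans normalised by masliner. The proteins were GST-tagged yeast transcription factors applied at about 100-200 nM to universal all-10-mer Agilent arrays made double-stranded by primer extension. Each ungapped eight-base word, pooled with its reverse complement, was scored with an E-score from the Universal PBM Analysis Suite.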
row,Sequence,PBM E-score
1,CGCCTCAC,0.0194
2,CTAGCCTA,-0.231
3,CGCCCTTC,-0.0904
4,CCTGACGA,0.0606
5,TAGCGTAA,0.218
6,AGGACGGG,-0.274
7,AGTATTGC,0.026
8,CTCTGCGC,-0.194
9,GGTACAAC,0.296
10,GAATTTCA,0.0241
11,CTCATTGC,0.048
12,CCCTCTCG,0.0789
13,CCAGGCAC,-0.192
14,TTCGGAAA,-0.0729
15,CAACCAAC,0.0043
16,AGCCTCCA,-0.181
17,ATTAGATA,0.131
18,TGAGGGCA,-0.145
19,GGGTCAAC,0.306
20,GGGTTCGA,-0.0189
21,ACATCTAC,-0.00772
22,GCAGTTAA,0.0321
23,ATTCCTTG,-0.102
24,TCCTACCA,-0.13
25,GAAGGAAA,-0.145

row,Sequence,PBM E-score
1,AATATCCC,-0.0114
2,ATTAGGGC,-0.0585
3,CAAATGCG,0.187
4,ATTGAACC,0.15
5,AGCCGCAC,-0.159
6,CATCGTTC,-0.015
7,AACGTCAG,-0.191
8,AACGCTGT,-0.126
9,CGTTGGGC,-0.172
10,GAACTCTA,-0.0476
11,GGAGCGAC,-0.122
12,AGGCTGAT,-0.178
13,CCAAAAAA,0.302
14,GCTCCCCC,-0.279
15,GTGATCTA,0.0436
16,CATACGTA,0.0326
17,ACCACATA,0.186
18,ACGCATCG,-0.197
19,ATAACTCA,0.139
20,CTCTTTAA,0.0384
21,GAACGTAC,-0.0635
22,GGGCATAA,0.113
23,ACTCTTGA,-0.00751
24,TCAATTAA,0.118
25,AGGGTAAG,0.373

row,Sequence,PBM E-score
1,TAAACGCA,-0.0354
2,AGATGAAT,-0.102
3,TCCCACGA,0.00185
4,CCGGACTA,-0.112
5,GCTAGGTA,-0.0853
6,AAAAACGT,0.0252
7,AGGCTTAC,-0.22
8,CGGCATAC,-0.198
9,CACACGAC,0.0123
10,AAGTTGTG,0.132
11,AACAAATA,0.161
12,ATTACACG,0.00914
13,ATGTGCTA,0.00879
14,AACTTGAG,-0.143
15,GTCCCACA,0.0224
16,AGTAACTC,-0.0584
17,CATCCACA,-0.0413
18,CGACCATC,-0.0448
19,GTAGTACA,0.0324
20,ATCACGAT,-0.0412
21,GGACAGGA,-0.0689
22,ACGCTAAG,-0.235
23,ATCGAAGG,0.0532
24,GTGTGAAA,0.135
25,GGCAGATA,-0.108

row,Sequence,PBM E-score
1,CCCACCGA,0.0688
2,CTATCTGA,-0.122
3,GCCGTCGC,-0.0684
4,TAATCTGA,0.0172
5,ACGCTTTA,-0.195
6,CAGGTCAC,0.195
7,CGATTTCC,-0.028
8,ACGCAGAG,-0.0426
9,GGTTAAGA,0.364
10,CAGGCGAC,-0.117
11,AGTGTGGG,-0.25
12,AGCAAAGG,0.193
13,GGCGATTA,-0.156
14,AATGCTAA,0.0411
15,GAAACTCC,-0.206
16,CTTTTATC,0.0786
17,CTTGTCCC,-0.0324
18,ATTTCGAA,0.2
19,GGTGAAAC,-0.0336
20,ACATGACC,0.229
21,TCAGATCA,-0.0317
22,GTACGAGA,-0.151
23,AGTAAGAC,-0.0197
24,GTTGCGTA,0.265
25,CGAAATAC,0.23

row,Sequence,PBM E-score
1,AAGCTATA,0.0255
2,AGCAAATA,-0.0419
3,GGCTCTAA,0.0427
4,CAAGGGTC,0.355
5,AGGTCAAG,0.277
6,GCAGCTCC,-0.208
7,CCCGCTTA,-0.188
8,CGTAACGC,0.04
9,CAGCCATG,-0.0489
10,GGTTAGAA,0.271
11,TACTAGAA,0.0998
12,ATCTCGTA,-0.0363
13,ACGTAAGC,-0.186
14,AACGGAGT,-0.0136
15,CGAGGTGC,-0.0405
16,GCTAGCTA,-0.0745
17,ATGGAGAC,-0.102
18,ATTATATC,0.0345
19,GAGCCCAA,-0.0241
20,CTCGAGTC,0.0344
21,CATGCACC,0.00947
22,GGTATGAA,0.313
23,GGGTTGCA,0.352
24,CTGCGTGA,-0.173
25,AAGATTGC,0.034

row,Sequence,PBM E-score
1,CGGTATTC,0.0519
2,AAAGTTAT,0.195
3,CCAGATAG,0.0348
4,CAATATAC,0.0336
5,CTCGCGTC,0.0188
6,CCGGCGTC,-0.11
7,ACCGCATA,0.231
8,AGTTGACA,0.103
9,ACACCGAT,-0.148
10,CCTACATC,-0.099
11,GCTCATCA,-0.0853
12,ACAGACAC,0.0689
13,ACTATTCT,-0.034
14,CGTGCTTA,-0.0642
15,GCCATCCC,-0.137
16,CAATAACA,0.0373
17,CCAAGGAC,-0.00128
18,CAAGCTGC,-0.118
19,AGTGCTAC,-0.179
20,AGAATTGC,-0.0387
21,TGAGCAAA,0.00108
22,TCGATCAA,-0.00608
23,AGAACGCA,-0.0824
24,TCTGTCAA,-0.113
25,ATGTCCGC,-0.033

row,Sequence,PBM E-score
1,CTGTCTGA,-0.109
2,CGTGCATA,-0.0651
3,TTAGATAA,0.0775
4,TCGGACAA,0.0839
5,GACATCGC,-0.157
6,ATAAGGTG,0.257
7,ATGGTCCA,0.0137
8,CACAAAAC,0.23
9,CCCCATCC,0.0278
10,GAATTATC,0.064
11,CTCGTATC,0.125
12,CAACAGTC,-0.267
13,CGGTTTCC,0.0737
14,AATCACGA,-0.0428
15,CCCTAGGA,0.0656
16,AGGTACAT,0.156
17,CCGAAGAA,-0.075
18,ACGAACCC,0.0823
19,TATACTCA,0.0941
20,ATAATTTC,0.106
21,GCTCCTCA,-0.203
22,AGTCAGTA,-0.0932
